{"source": "patent US6911428B2", "about": "“Diaryl peptides as NS3-serine protease inhibitors of hepatitis C virus” (Schering Corporation, priority 2000, dated 2005)", "molecular_target": "Recombinant heterodimeric HCV NS3/NS4A protease (strain 1a) (Hepatitis C virus genotype 1a, UniProt P27958)", "assay": "Spectrophotometric assay for HCV serine protease inhibitory activity (chromogenic ester substrates)", "assay_type": "biochemical", "conditions": "competitive inhibition, 30° C., pH 6.5 assay buffer", "method": "Spectrophotometric assay for the HCV serine protease was performed on the inventive compounds by following the procedure described by R. Zhang et al, Analytical Biochemistry, 270 (1999) 268-275, the disclosure of which is incorporated herein by reference. The assay based on the proteolysis of chromogenic ester substrates is suitable for the continuous monitoring of HCV NS3 protease activity. The substrates were derived from the P side of the NS5A-NS5B junction sequence (Ac-DTEDWX(Nva), where X=A or P) whose C-terminal carboxyl groups were esterified with one of four different chromophoric alcohols (3- or 4-nitrophenol, 7-hydroxy-4-methyl-coumarin, or 4-phenylazophenol). Presented below are the synthesis, characterization and application of these novel spectrophotometric ester substrates to high throughput screening and detailed kinetic evaluation of HCV NS3 protease inhibitors.\nProtein concentrations were determined by the Biorad dye method using recombinant HCV protease standards previously quantified by amino acid analysis. Prior to assay initiation, the enzyme storage buffer (50 mM sodium phosphate pH 8.0, 300 mM NaCl, 10% glycerol, 0.05% lauryl maltoside and 10 mM DTT) was exchanged for the assay buffer (25 mM MOPS pH 6.5, 300 mM NaCl, 10% glycerol, 0.05% lauryl maltoside, 5 μM EDTA and 5 μM DTT) utilizing a Biorad Bio-Spin P-6 prepacked column. Substrate Synthesis and Purification: The synthesis of the substrates was done as reported by R. Zhang et al, (ibid.) and was initiated by anchoring Fmoc-Nva-OH to 2-chlorotrityl chloride resin using a standard protocol (K. Barlos et al, Int. J. Pept. Protein Res., 37 (1991), 513-520). The peptides were subsequently assembled, using Fmoc chemistry, either manually or on an automatic ABI model 431 peptide synthesizer. […] The combined filtrate and DCM wash was evaporated azeotropically (or repeatedly extracted by aqueous Na2CO3 solution) to remove the acid used in cleavage. The DCM phase was dried over Na2SO4 and evaporated.\nThe ester substrates were assembled using standard acid-alcohol coupling procedures (K. Holmber et al, Acta Chem. Scand., B33 (1979) 410-412). Peptide fragments were dissolved in anhydrous pyridine (30-60 mg/ml) to which 10 molar equivalents of chromophore and a catalytic amount (0.1 eq.) of para-toluenesulfonic acid (pTSA) were added. Dicyclohexylcarbodiimide (DCC, 3 eq.) was added to initiate the coupling reactions. Product formation was monitored by HPLC and found to be complete following 12-72 hour reaction at room temperature. Pyridine solvent was evaporated under vacuum and further removed by azeotropic evaporation with toluene. The peptide ester was deprotected with 95% TFA in DCM for two hours and extracted three times with anhydrous ethyl ether to remove excess chromophore. The deprotected substrate was purified by reversed phase HPLC on a C3 or C8 column with a 30% to 60% acetonitrile gradient (using six column volumes). The overall yield following HPLC purification was approximately 20-30%. The molecular mass was confirmed by electrospray ionization mass spectroscopy. The substrates were stored in dry powder form under desiccation.\nSpectra of Substrates and Products: Spectra of substrates and the corresponding chromophore products were obtained in the pH 6.5 assay buffer. Extinction coefficients were determined at the optimal off-peak wavelength in 1-cm cuvettes (340 nm for 3-Np and HMC, 370 nm for PAP and 400 nm for 4-Np) using multiple dilutions. The optimal off-peak wavelength was defined as that wavelength yielding the maximum fractional difference in absorbance between substrate and product (product OD−substrate OD)/substrate OD). Protease Assay: HCV protease assays were performed at 30° C. using a 200 μl reaction mix in a 96-well microtiter plate.", "note": "Read-outs that look alike come from different tables or passages of the source.", "data": [{"molecule": "CCCC(NC(=O)[C@@H]1CC2(CN1C(=O)C(NC(=O)OC(C)(C)C)C(C)(C)C)SCCCS2)C(=O)C(=O)NCC(=O)NC(c1ccccc1)c1cccs1", "note": "(single isomer, unassigned) [XXIII]", "values": [{"measurement": "Ki", "setting": "read-out: HCV Assay Range Ki*", "value": "1000 to 10000", "unit": "nM"}]}, {"molecule": "CCCC(NC(=O)[C@@H]1CC2(CN1C(=O)C(NC(=O)OC(C)(C)C)C(C)(C)C)SCCCS2)C(=O)C(=O)NCC(=O)NC(c1ccccc1)c1cccs1", "note": "(single isomer, unassigned) [XXII]", "values": [{"measurement": "Ki", "setting": "read-out: HCV Assay Range Ki*", "value": "100 to 999", "unit": "nM"}]}, {"molecule": "CCCC(NC(=O)C1C[C@@H](OCc2ccccc2)CN1C(=O)C(NC(=O)OCC(C)C)C1CCCCC1)C(=O)C(=O)NCC(=O)NC(c1ccccc1)c1ccccn1", "note": "(stereo partly drawn) [III]", "values": [{"measurement": "Ki", "setting": "read-out: HCV Assay Range Ki*", "value": "100 to 999", "unit": "nM"}]}, {"molecule": "CCCC(NC(=O)C(CC(C)C)NC(=O)C(NC(=O)OCC(C)C)C1CCCCC1)C(=O)C(=O)NCC(=O)NC(c1ccccn1)c1ccccn1", "note": "(stereo not drawn) [IV]", "values": [{"measurement": "Ki", "setting": "read-out: HCV Assay Range Ki*", "value": "1000 to 10000", "unit": "nM"}]}, {"molecule": "CCCC(NC(=O)C(CC(C)C)NC(=O)C(NC(=O)OCC(C)C)C1CCCCC1)C(=O)C(=O)NCC(=O)NC(c1ccc(S(=O)(=O)NC(C)C)cc1)c1nccn1C", "note": "(stereo not drawn) [IX]", "values": [{"measurement": "Ki", "setting": "read-out: HCV Assay Range Ki*", "value": "1000 to 10000", "unit": "nM"}]}, {"molecule": "CCCC(NC(=O)C(CC(C)C)NC(=O)C(NC(=O)OCC(C)C)C1CCCCC1)C(=O)C(=O)NCC(=O)NC(c1ccc(S(=O)(=O)NCC2CCCCC2)cc1)c1nccn1C", "note": "(stereo not drawn) [VIII]", "values": [{"measurement": "Ki", "setting": "read-out: HCV Assay Range Ki*", "value": "10000 to 50000", "unit": "nM"}]}, {"molecule": "CCCC(NC(=O)C(CC(C)C)NC(=O)C(NC(=O)OC(C)(C)C)C1CCCCC1)C(=O)C(=O)NCC(=O)NC(C(=O)OC)(c1ccccc1)c1ccccc1", "note": "(stereo not drawn) [VII]", "values": [{"measurement": "Ki", "setting": "read-out: HCV Assay Range Ki*", "value": "1000 to 10000", "unit": "nM"}]}, {"molecule": "CCCC(NC(=O)[C@@H]1C[C@@H](OCc2ccccc2)CN1C(=O)C(NC(=O)OCC(C)C)C1CCCCC1)C(=O)C(=O)NCC(=O)NC(c1ccc(O)cc1)c1ccccn1", "note": "(stereo partly drawn) [VI]", "values": [{"measurement": "Ki", "setting": "read-out: HCV Assay Range Ki*", "value": "1000 to 10000", "unit": "nM"}]}, {"molecule": "CCCC(NC(=O)[C@@H]1C[C@@H](OCc2ccccc2)CN1C(=O)C(NC(=O)OCC(C)C)C1CCCCC1)C(=O)C(=O)NCC(=O)NC(c1ccccn1)c1ccccn1", "note": "(stereo partly drawn) [V]", "values": [{"measurement": "Ki", "setting": "read-out: HCV Assay Range Ki*", "value": "100 to 999", "unit": "nM"}]}, {"molecule": "CCCC(NC(=O)[C@@H]1CC2(CN1C(=O)C(NC(=O)OCC(C)C)C(C)(C)C)SCCCS2)C(=O)C(=O)NCC(=O)NC(c1ccccc1)c1nc[nH]n1", "note": "(stereo partly drawn) [XIII]", "values": [{"measurement": "Ki", "setting": "read-out: HCV Assay Range Ki*", "value": "100 to 999", "unit": "nM"}]}, {"molecule": "CCCC(NC(=O)[C@@H]1CC2(CN1C(=O)C(NC(=O)OC(C)(C)C)C(C)(C)C)SCCCS2)C(=O)C(=O)NCC(=O)NC(c1ccccc1)c1nc[nH]n1", "note": "(stereo partly drawn) [XII]", "values": [{"measurement": "Ki", "setting": "read-out: HCV Assay Range Ki*", "value": "10 to 99", "unit": "nM"}]}, {"molecule": "CCCC(NC(=O)[C@@H]1CC2(CN1C(=O)C(NC(=O)Cc1ccccc1)C(C)(C)C)SCCCS2)C(=O)C(=O)NCC(=O)NC(c1ccccc1)c1nc[nH]n1", "note": "(stereo partly drawn) [XIV]", "values": [{"measurement": "Ki", "setting": "read-out: HCV Assay Range Ki*", "value": "100 to 999", "unit": "nM"}]}, {"molecule": "CCCC(NC(=O)[C@@H]1CC2(CN1C(=O)C(NC(=O)OC(C)(C)C)C(C)(C)C)SCCCS2)C(=O)C(=O)NCC(=O)NC(c1ccccc1)c1ncn(COCC[Si](C)(C)C)n1", "note": "(stereo partly drawn) [XIX]", "values": [{"measurement": "Ki", "setting": "HCV Assay Range Ki* (nM)", "value": "1000 to 10000", "unit": "nM"}]}, {"molecule": "CCCC(NC(=O)[C@@H]1CC2(CN1C(=O)C(NC(=O)OCC(C)C)C1CCCCC1)SCCCS2)C(=O)C(=O)NCC(=O)NC(c1ccccc1)c1nc[nH]n1", "note": "(stereo partly drawn) [XI]", "values": [{"measurement": "Ki", "setting": "read-out: HCV Assay Range Ki*", "value": "100 to 999", "unit": "nM"}]}, {"molecule": "CCCC(NC(=O)C1CC2(CN1C(=O)C(NC(=O)OC(C)(C)C)C(C)(C)C)SCCCS2)C(=O)C(=O)NCC(=O)NC(c1ccccc1)c1nnn[nH]1", "note": "(stereo not drawn) [XVIII]", "values": [{"measurement": "Ki", "setting": "read-out: HCV Assay Range Ki*", "value": "100 to 999", "unit": "nM"}]}, {"molecule": "CCCC(NC(=O)[C@@H]1CC2(CN1C(=O)C(NC(=O)Cc1ccccc1)C(C)(C)C)SCCCS2)C(=O)C(=O)NCC(=O)NC(c1ccccc1)c1ccccc1", "note": "(stereo partly drawn) [XVII]", "values": [{"measurement": "Ki", "setting": "read-out: HCV Assay Range Ki*", "value": "100 to 999", "unit": "nM"}]}, {"molecule": "CCCC(NC(=O)[C@@H]1CC2(CN1C(=O)C(NC(=O)OCC(C)C)C(C)(C)C)SCCCS2)C(=O)C(=O)NCC(=O)NC(c1ccccc1)c1ccccc1", "note": "(stereo partly drawn) [XVI]", "values": [{"measurement": "Ki", "setting": "read-out: HCV Assay Range Ki*", "value": "100 to 999", "unit": "nM"}]}, {"molecule": "CCCC(NC(=O)[C@@H]1CC2(CN1C(=O)C(NC(=O)OC(C)(C)C)C(C)(C)C)SCCCS2)C(=O)C(=O)NCC(=O)NC(c1ccccc1)c1ccccc1", "note": "(stereo partly drawn) [XV]", "values": [{"measurement": "Ki", "setting": "read-out: HCV Assay Range Ki*", "value": "100 to 999", "unit": "nM"}]}, {"molecule": "CCCC(NC(=O)[C@@H]1CC2(CN1C(=O)C(NC(=O)OC(C)(C)C)C(C)(C)C)SCCCS2)C(=O)C(=O)NCC(=O)NC(c1ccccc1)c1ccco1", "note": "(stereo partly drawn) [XXIV]", "values": [{"measurement": "Ki", "setting": "read-out: HCV Assay Range Ki*", "value": "100 to 999", "unit": "nM"}]}, {"molecule": "CCCC(NC(=O)C1CC2CN1C(=O)[C@H](C(C)(C)C)NC(=O)CCc1ccc(cc1)OCCCO2)C(=O)C(=O)NCC(=O)NC(c1ccccc1)c1nnnn1C(C)(C)C", "note": "(stereo partly drawn) [XXVII]", "values": [{"measurement": "Ki", "setting": "read-out: HCV Assay Range Ki*", "value": "1000 to 10000", "unit": "nM"}]}, {"molecule": "CCCC(NC(=O)C1CC2CN1C(=O)[C@H](C(C)(C)C)NC(=O)Cc1cccc(c1)OCCCO2)C(=O)C(=O)NCC(=O)NC(c1ccccc1)c1nnnn1C(C)(C)C", "note": "(stereo partly drawn) [XXVI]", "values": [{"measurement": "Ki", "setting": "read-out: HCV Assay Range Ki*", "value": "100 to 999", "unit": "nM"}]}, {"molecule": "CCCC(NC(=O)[C@@H]1CC2(CN1C(=O)C(NC(=O)OC(C)(C)C)C(C)(C)C)SCCCS2)C(=O)C(=O)NCC(=O)NC(c1ccccc1)c1nccs1", "note": "(stereo partly drawn) [XXV]", "values": [{"measurement": "Ki", "setting": "read-out: HCV Assay Range Ki*", "value": "100 to 999", "unit": "nM"}]}, {"molecule": "CCCC(NC(=O)C1CC2(CN1C(=O)C(NC(=O)OC(C)(C)C)C(C)(C)C)SCCCS2)C(=O)C(=O)NCC(=O)NC(c1ccccc1)c1nnnn1C", "note": "(stereo not drawn) [XX]", "values": [{"measurement": "Ki", "setting": "read-out: HCV Assay Range Ki*", "value": "100 to 999", "unit": "nM"}]}, {"molecule": "CCCC(NC(=O)C1CC2(CN1C(=O)C(NC(=O)OCC(C)C)C1CCCCC1)SCCCS2)C(=O)C(=O)NCC(=O)NC(c1ccccc1)c1nnn[nH]1", "note": "(stereo not drawn) [X]", "values": [{"measurement": "Ki", "setting": "read-out: HCV Assay Range Ki*", "value": "10 to 99", "unit": "nM"}]}]}
